Laboratory results: PubChem BioAssay AID488969 (Vanderbilt High Throughput Screening Facility, 2010)
The full ranking holds about 110,000 compounds; the median of “z-score” is about -0.1, and the highest 2% start at about 2. The list shows a part of the results.

The compounds below were run against Metabotropic glutamate receptor 8 (Rattus norvegicus) (UniProt P70579) (assay: rat mGluR8 modulators via GIRK flux, primary screen, cell-based, thallium flux, HTS (AID 488969)). Conditions: HEK293 rat mGluR8, GIRK (G protein-gated inwardly rectifying potassium channel) thallium flux, FluoZin2; at 10 µM; stronger effect = higher value; submaximal glutamate (EC20) added with thallium.
Chain of UniProt P70579 (P70579 whole entry, looked up): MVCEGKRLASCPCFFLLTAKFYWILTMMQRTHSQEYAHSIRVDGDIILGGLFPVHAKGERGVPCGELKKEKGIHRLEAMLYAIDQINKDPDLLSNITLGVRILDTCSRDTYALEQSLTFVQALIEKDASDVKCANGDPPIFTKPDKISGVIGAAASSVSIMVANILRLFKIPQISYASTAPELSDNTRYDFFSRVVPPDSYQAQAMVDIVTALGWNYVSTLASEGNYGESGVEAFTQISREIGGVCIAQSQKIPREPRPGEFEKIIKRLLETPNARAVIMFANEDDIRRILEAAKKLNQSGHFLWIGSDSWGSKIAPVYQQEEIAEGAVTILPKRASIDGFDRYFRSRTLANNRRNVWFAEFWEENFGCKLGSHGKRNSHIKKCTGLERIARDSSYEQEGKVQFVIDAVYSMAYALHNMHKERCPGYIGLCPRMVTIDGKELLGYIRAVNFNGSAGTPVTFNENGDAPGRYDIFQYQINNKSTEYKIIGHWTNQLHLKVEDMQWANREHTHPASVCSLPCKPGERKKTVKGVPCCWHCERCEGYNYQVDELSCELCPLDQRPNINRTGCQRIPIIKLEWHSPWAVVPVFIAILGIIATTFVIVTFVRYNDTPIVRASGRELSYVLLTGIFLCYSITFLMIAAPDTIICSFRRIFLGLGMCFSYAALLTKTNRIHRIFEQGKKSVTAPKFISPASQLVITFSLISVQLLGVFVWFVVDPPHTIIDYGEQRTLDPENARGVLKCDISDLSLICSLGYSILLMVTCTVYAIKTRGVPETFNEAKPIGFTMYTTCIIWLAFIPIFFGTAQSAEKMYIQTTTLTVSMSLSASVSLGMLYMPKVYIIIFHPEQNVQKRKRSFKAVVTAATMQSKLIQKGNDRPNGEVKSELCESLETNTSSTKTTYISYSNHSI
Work on `CCN(CCNC(=O)CC1Oc2ccccc2NC1=O)c1ccccc1` (stereo not given) yielded a z-score of 0.299. Work on `CCSc1cnc(-c2ccccc2)n1CC` yielded a z-score of 0.456. Work on `CCOc1ccc2nc(/N=C/c3nc(-c4ccc(Br)cc4)oc3O)sc2c1` yielded a z-score of 0.754. For `CCCCOC(=O)CCc1nc2ccccc2[nH]c1=O`, the z-score was -0.0101. `COc1ccc(Nc2sc(C(=O)c3ccc(Cl)cc3)c(N)c2C(=O)Nc2ccccc2OC)cc1` was tested, and the z-score was 0.241. `Cc1ccc(NS(=O)(=O)c2ccc3c(c2)oc(=O)n3C)cc1F` showed a z-score of 0.683. `N#Cc1ccc(CSc2nnc(Cc3cccs3)n2Cc2ccco2)cc1` gave a z-score of -0.393. In the case of `COCCn1c(SCC(=O)Nc2cccc(C(=O)OC)c2)nc2ccccc2c1=O`, the z-score is reported as -0.907. `c1ccc(N2CCN(Cc3cn4cccnc4n3)CC2)cc1` gave a z-score of 0.904. In the case of `O=C(CC(=O)NC1CCCCC1)N/N=C/c1ccccc1Cl`, the z-score is reported as -0.318. Work on `Cc1ccc(CNC(=O)Cc2ccc(-n3cccc3)cc2)cc1` yielded a z-score of 0.0794. With `COC(=O)c1ccccc1NC(=S)NC(=O)CC(C)C` the z-score was 0.252. `CCc1c(C)nc(/N=C(/NC(=O)c2ccccc2)Nc2ccccc2OC)[nH]c1=O` gave a z-score of -0.283. `CCOC(=O)c1oc2ccc(S(=O)(=O)n3nc(-c4ccc(Cl)cc4)cc3N)cc2c1C` gave a z-score of -0.324. `COc1cc(/C=N\NC(=O)c2sc(N)nc2C)cc(OC)c1OC` was tested, and the z-score was -0.22. `CC(c1ccco1)N(Cc1ccco1)C(=O)Nc1ccccc1` (stereo not given) was tested, and the z-score was -0.491. With `N=c1c2c(n(Cc3ccc(Cl)c(Cl)c3)c3c1CCC3)CCCC2` the z-score was -0.537. With `CCOC(=O)c1ccc(-n2ccnc2)c(NC(=O)c2cccc(Br)c2)c1` the z-score was -0.152. Work on `CCn1c(CNc2nc(-c3ccccc3)cs2)nnc1SCC(=O)NCc1ccccc1` yielded a z-score of -0.268. Compound `Cc1ccc(C(=O)N2c3ccc(F)cc3CCC2C)o1` (stereo not given) has a z-score of -0.571. Work on `CCN1CCN(c2cc(C)c3cc(NC(=O)c4ccncc4)ccc3n2)CC1` yielded a z-score of 1.22. Work on `O=C(CSc1nc2ccccc2[nH]1)N/N=C/C=C/c1ccccc1[N+](=O)[O-]` yielded a z-score of -0.487. `CC1(C)CC2(CC(c3cccs3)c3cc(Cl)c(O)cc3O2)NC(=S)N1` (stereo not given) was tested, and the z-score was -0.38. `CCN(CC)CCCNC(=O)CC1Sc2ccccc2NC1=O` (stereo not given) was tested, and the z-score was -0.0404. `O=c1cnn(-c2ccc(Cl)cc2Cl)c(-c2ccccc2)c1` gave a z-score of 0.0812. `Cc1nnc(SCC(=O)NCc2ccc3c(c2)OCO3)s1` was tested, and the z-score was -0.348. `CCOC(=O)C1CCN(C(=O)Cn2cccc2C(=O)c2ccccc2)CC1` showed a z-score of -0.187. For `Cn1cc(S(=O)(=O)N2CCN(c3ccccc3F)CC2)c(=O)n(C)c1=O`, the z-score was 0.09. `O=C(Cn1nnc(-c2cccc(C(F)(F)F)c2)n1)NC(=O)NCc1ccco1` showed a z-score of -0.158. In the case of `COc1ccccc1-c1noc(-c2cccs2)n1`, the z-score is reported as -0.201. Compound `CC(Sc1nnc2c(n1)C1(C)CCC2C1(C)C)C(=O)Nc1ccccc1` (stereo not given) has a z-score of -0.0288. With `Cc1ccc(SCCNC(=S)Nc2ccc(C)cc2C)cc1` the z-score was -0.0168. For `CCOCCCNC(=S)Nc1cc(C)cc(C)c1`, the z-score was -0.0698. Work on `O=C(CCSCCc1ccccn1)Nc1nccs1` yielded a z-score of 0.34. For `COc1ccc(C(=O)CSc2n[nH]c(-c3ccncc3)n2)cc1[N+](=O)[O-]`, the z-score was -0.176. `COc1ccc2oc(=O)c(C(=O)n3ccc(C)n3)cc2c1` was tested, and the z-score was -0.118. `CCc1c(O)nc(SCC(=O)Nc2ccc(C)cc2)n(C2CCCCC2)c1=O` gave a z-score of -0.292. For `Cc1ccc(S(=O)(=O)NCC(=O)N/N=C/c2ccc(Cl)cc2)cc1`, the z-score was -0.257. `CSc1nc2ccc(NC(=O)C3CC(=O)N(Cc4ccccc4)C3)cc2s1` (stereo not given) showed a z-score of -0.391. For `COCCCn1c(-c2ccc(Cl)cc2)n[nH]c1=S`, the z-score was -0.927. `C/C(=N\NC(=S)NCc1ccccc1)c1ccc(Cl)cc1` showed a z-score of 0.101. In the case of `CCOC(=O)C1=C(O)/C(=C/c2cn(CC(=O)NCC3CCCO3)c3ccccc23)SC1=Nc1ccc(C)cc1` (stereo not given), the z-score is reported as -0.194. For `COc1cccc(-c2nn(-c3ccccc3)cc2C(=O)NCC(=O)O)c1`, the z-score was -0.436. `COc1ccccc1OCCC(=O)OCC(=O)Nc1ccc(Br)cc1` showed a z-score of -0.0864. With `CC(=O)N1CCC(=NNc2ccc(S(=O)(=O)N3CCOCC3)cc2[N+](=O)[O-])CC1` the z-score was 0.476. Work on `Cc1cc(C)nc(N2CCC(C(=O)Nc3cccc(C(F)(F)F)c3)CC2)n1` yielded a z-score of 0.196. `O=C1C2C3C=CC(C2C(=O)N1C1CCCCC1)C1C(=O)N(C2CCCCC2)C(=O)C31` (stereo not given) showed a z-score of -0.0761. In the case of `C=CCNCC(=O)NN=C(c1ccccc1)c1ccccc1`, the z-score is reported as -0.503. Compound `CCOC(=O)c1cnn(-c2ccccc2)c1-n1cccc1C(=O)C(=O)Nc1ccc(F)cc1` has a z-score of 0.0685. Work on `Cc1ccc(NC2=CC(=O)OC(C)C2)cc1` (stereo not given) yielded a z-score of -0.119. `CC(=O)c1c(C(C)=O)c(C)n(-c2nc(-c3ccc(Br)cc3)c(C)s2)c1C` gave a z-score of -0.0458. `Cc1sc(NC(=O)CN(Cc2ccc(F)cc2)C(=O)C(C)C)c(C(N)=O)c1C` was tested, and the z-score was -0.0634. In the case of `O=C(NC1CCS(=O)(=O)C1)c1cnccn1` (stereo not given), the z-score is reported as 0.256. In the case of `CCS(=O)(=O)N1Cc2ccccc2CC1C(=O)Nc1nnc(SCc2ccc(F)cc2)s1` (stereo not given), the z-score is reported as 0.399. `Cc1cc(C)c(C(N)=O)c(SCC(=O)c2ccc(Cl)cc2)n1` was tested, and the z-score was 0.133. Work on `CC1CCN(C(=S)c2ccccc2O)CC1` yielded a z-score of 0.47. `CCc1ccc(Nc2oc(C)cc(=O)c2C(C)=O)cc1` showed a z-score of 0.915. `CCn1c(COc2ccccc2C)nnc1SCC(=O)CC(=O)Nc1ccccc1OC` gave a z-score of -0.167. `Cc1cc(C(F)(F)F)nn1CC(=O)NNC(=S)Nc1cccc(Cl)c1` gave a z-score of -0.124. Work on `O=C(Cn1nnc2c(cnn2-c2ccc(F)cc2)c1=O)c1ccccc1F` yielded a z-score of 0.187. `CCC(C)Cn1c(C)nc2ccccc21` (stereo not given) was tested, and the z-score was -1.22. `O=C(/C=C\NCC(=O)c1ccccc1)c1ccc(F)cc1` was tested, and the z-score was 0.1. `COc1ccc(-c2csc(NC(=O)c3ccc(OCC(=O)N4CCOCC4)c(OC)c3)n2)cc1OC` showed a z-score of -0.0158. In the case of `COc1cc(/C=C(\NC(C)=O)C(=O)NC(C)(C)CC(C)(C)C)ccc1OC(C)=O`, the z-score is reported as -0.165. Work on `CCOC(=O)c1c(N)sc(C(=O)N2CCCC2)c1C` yielded a z-score of -0.0606. `O=C(Nc1cccc(C(F)(F)F)c1)/C(=C/c1ccco1)NC(=O)c1cccs1` showed a z-score of 0.0438. `O=C(COC(=O)CNC(=O)c1cccc([N+](=O)[O-])c1)Nc1ccccc1OC(F)F` showed a z-score of -0.0652. `NC(=O)C1(N2CCCCC2)CCN(Cc2ccccc2Cl)CC1` gave a z-score of -1.25. `CCCC(c1nnnn1CCOC)N(Cc1cc2cc(C)c(C)cc2[nH]c1=O)CC1CCCO1` (stereo not given) was tested, and the z-score was 0.0789. `CCN(CC)CCn1c(NCc2cccc(OC)c2)nc2ccccc21` showed a z-score of 1.66.
